About 1,200 (2.5%) of roughly 48,000 compounds were called active. Another 2% or so got no clear call; they are omitted.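 The calls were made as follows: active = activation of at least 60% and not above a set upper limit (about 1 call in 100 departs from these limits); inconclusive = activation of 40% to 60%, or above that upper limit; inactive = activation under 40%.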 The list shows a part of the results.

UniProt O75388, sequence (O75388 whole entry, looked up): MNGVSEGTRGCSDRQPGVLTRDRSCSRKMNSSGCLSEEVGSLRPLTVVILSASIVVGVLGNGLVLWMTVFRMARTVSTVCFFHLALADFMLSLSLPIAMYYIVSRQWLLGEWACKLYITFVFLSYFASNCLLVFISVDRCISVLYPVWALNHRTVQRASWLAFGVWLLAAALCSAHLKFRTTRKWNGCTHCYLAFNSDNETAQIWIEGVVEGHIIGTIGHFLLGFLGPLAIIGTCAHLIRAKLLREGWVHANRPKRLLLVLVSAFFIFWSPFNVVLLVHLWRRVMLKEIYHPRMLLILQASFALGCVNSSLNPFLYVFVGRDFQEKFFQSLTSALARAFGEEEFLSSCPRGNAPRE

This test concerns the target Probable G-protein coupled receptor 32 (Homo sapiens) (UniProt O75388). Put plainly: qHTS for Agonists of Human Resolvin D1 Receptor DRV1. As to conditions: CHO-K1 GPR32 beta-arrestin PathHunter luminescence, 90 min; at 76.9 µM; stronger effect = higher value; zero percent set by DMSO-only wells. Summed up:
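Beta-arrestin recruitment read-out: luminescence from complemented beta-Gal in CHO-K1 GPR32 PathHunter cells, measured 1 h after detection reagent at ambient temperature following 90 min compound exposure at 37 °C; DMSO served as basal (EC0) control.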
In general terms: qHTS replaces the single test concentration by a dilution series.
As to `Cc1nn2c(=O)cc(COC(=O)c3ccc(NC(=O)CCc4ccccc4)cc3)nc2s1`, the activation was inactive: -11.8%.
`CCC(Sc1nc2cc3c(cc2c(=O)n1CCCCCC(=O)NCc1ccc2c(c1)OCO2)OCO3)C(=O)NCCCOC` (stereo unspecified): the activation was inactive: -19.3%.
Consider `COc1ccc(CCNC(=O)C(=O)NCC(c2ccco2)S(=O)(=O)c2cccs2)cc1` (stereo unspecified), for which the activation was inactive: -7.97%.
With `CC(C)C(=O)Nc1ccccc1C(=O)OCc1cc(=O)n2nc(C3CC3)sc2n1`, the activation is inactive: 8.2%.
Turning to `Cc1c(Cl)cccc1NC(=O)c1cc(-c2cccc(Cl)c2)on1`, the activation was inactive: -3.47%.
For the molecule `COc1cc2c(C(=O)N3CCN(c4cccc(Cl)c4)CC3)cn(C)c(=O)c2cc1OC`, the activation was inactive: 6.83%.
As to `O=C(CN1C(=O)c2cccnc2Oc2ccc(Cl)cc21)NCCCN1CCCCC1`, the activation was inactive: -2.08%.
Consider `O=C(Nc1cccc(Br)c1)Nc1nc2c(s1)CCCCCC2`, for which the activation is active: 113%.
The same measure for `Cc1ccn2c(c1)nc(=O)c1cc(S(=O)(=O)N3CCCCC3)ccc12`: inactive: 16.7%; for `COc1ccc(NC(=O)c2cnc(N3CCOCC3)c3ccccc23)cc1OC`: inactive: -8.69%.
In the case of `Cc1cccc(-c2nc3cc(NC(=O)c4ccc(OCC(C)C)cc4)ccc3o2)c1`, the activation was inactive: -16.7%.
On to `CC(C)[C@@H]1CC[C@@H](C)C[C@@H]1P(=O)(c1ccccc1)c1ccccc1`, for which the activation was inactive: -13.4%.
The figure for `CCOC(=O)N1CCC(NC(=O)c2cnn(-c3ccc(C)cc3)c2-n2cccc2)CC1` is inactive: -15%.
The same measure for `Cc1cccn2c(=O)c3cc(C(=O)NC(C)C)n(C)c3nc12`: inactive: -6.84%.
For `O=C(Nc1ccc2nc(SCCOc3ccccc3)sc2c1)c1ccco1`, the activation is inactive: 47.6%.
As for `CCOc1ccc(NC(=O)NC(C)c2c(-n3cccc3)sc3c2CCN(CC)C3)cc1` (stereo unspecified), the activation is inactive: -15.8%.
The figure for `COc1cccc(CCNC(=O)c2ccc(Cn3c(SCc4ccccc4)nc4cccnc43)cc2)c1` is inactive: -15.3%.
Turning to `CCOc1ccc(NC(=O)Cn2cc(C(=O)c3ccc(F)cc3)c(=O)c3cc4c(cc32)OCO4)cc1`, the activation is inactive: -5.1%.
As to `Cc1ccccc1NC(=O)C1CCN(C(=O)c2ccc(F)cc2)CC1`, the activation was inactive: 5.84%.
Turning to `COc1ccc(-c2nc3ccccc3n2Cc2ccc(C(C)C)cc2)cc1`, the activation was inactive: -35.4%.
As to `CC(=O)Nc1ccc2nc(SCCOc3ccc(C)cc3)sc2c1`, the activation is inactive: 44.8%.
Take `COc1ccc(Nc2ncnc3scc(-c4ccc(F)cc4)c23)cc1`: the activation is inactive: -0.434%.
Take `COc1ccc(Cn2c(SCc3ccc(C(=O)NC4CCCCC4)cc3)nc3cccnc32)cc1`: the activation was inactive: 19.8%.
On to `COc1ccccc1-c1cc(C(F)(F)F)nc(S(=O)(=O)CCCC(=O)Nc2ccccc2F)n1`, for which the activation is inactive: -21%.
Regarding `CCc1c(CN2CCN(c3ccc(F)cc3)CC2)csc1C`, the activation was inactive: 23.1%.
The figure for `CC1CCc2c(N3CCC(O)CC3)c(F)cc3c(=O)c(C(=O)O)cn1c23` (stereo unspecified) is inactive: -45.4%; for `COc1ccc(NC(=O)c2sc3nc(C)c(C(=O)Nc4ccc(C)cc4C)c(-c4sccc4C)c3c2N)cc1` it is inactive: -22.1%; for `COc1cc2c(cc1NC(=O)COc1cc(C)cc(C)c1)oc1ccccc12` it is inactive: -9.99%.
Take `COCCNc1nc2c(S(=O)(=O)c3ccccc3)nnn2c2ccc(Cl)cc12`: the activation is inactive: -3.57%.
The figure for `O=C(COc1ccc(Cl)cc1)NCCc1csc(-c2ccc(C(F)(F)F)cc2)n1` is inactive: -19%.
On to `COc1ccc(C)cc1Nc1nc2c(S(=O)(=O)c3cc(C)ccc3C)nnn2c2ccsc12`, for which the activation is inactive: -5.41%.
The same measure for `Cc1ccc(CN2CCC(CNC(=O)Nc3ccccc3F)CC2)cc1`: inactive: 8.97%; for `CN(C)c1ccc(C(=O)Nc2sc(Nc3ccccc3)nc2C(N)=O)cc1`: inactive: -14.7%.
As to `Cc1oc2c(cc(NS(=O)(=O)c3ccc(Br)cc3)c3ccccc32)c1C(=O)OCc1ccccc1`, the activation is inactive: -3.82%.
For `CCCCCn1c(=O)[nH]c2cc(C(=O)N3CCN(c4ccc(OC)cc4)CC3)ccc2c1=O`, the activation was inactive: 38.2%.
As to `COc1ccc(Cn2c(CCC(=O)Nc3ccc(Br)c(C)c3)nc3cccnc32)cc1`, the activation is inactive: -12.2%.
As for `O=C(Nc1cc(Cl)cc(Cl)c1)c1ccc(F)c(S(=O)(=O)N2CCCC2)c1`, the activation was inactive: 22.8%.
On to `COc1cc(OC)c(C(=O)NCc2nc(-c3ccccc3)no2)cc1OC`, for which the activation is active: 70.7%.
Turning to `CCCC(=O)Oc1c(Sc2ccc(C)cc2)c(C)nn1-c1ccccc1`, the activation was inactive: -11.6%.
As for `CCc1ccc(CN(Cc2ccco2)c2cnc(S(C)(=O)=O)nc2C(=O)Nc2ccc(C)c(Cl)c2)cc1`, the activation was inactive: -21.5%.
In the case of `CCOC(=O)C1CCC(CN(Cc2ccc(OC)cc2)S(=O)(=O)c2ccc(C)cc2)CC1` (stereo unspecified), the activation was inactive: -5.57%.
Consider `O=C(Cn1nnc(-c2ccc(C(F)(F)F)cc2)n1)NCCc1ccccc1`, for which the activation was inactive: -4.19%.
`Cc1cc(C)cc(NS(=O)(=O)c2cc3[nH]c(=O)c(=O)[nH]c3cc2C)c1`: the activation is inactive: 19.6%.
`CC(=O)Nc1ccc(S(=O)(=O)N2CCC(N3CCN(Cc4ccc(C)cc4)C(=O)C3=O)CC2)cc1`: the activation was inactive: -2.36%.
For `CC1Cc2cc(S(=O)(=O)CCC(=O)Nc3cccc(F)c3)ccc2N1C(=O)C1CC1` (stereo unspecified), the activation was inactive: 7.94%.
The same measure for `O=C(Cn1ncn2c(cc3cc(F)ccc32)c1=O)NC1CCCCC1`: inactive: -2.25%.
Regarding `COC(=O)c1ccccc1NC(=O)c1cc2ccccn2n1`, the activation is inactive: 12%.
For the molecule `Cc1ccc(NC(=O)CN(C)S(=O)(=O)c2cccc3cccnc23)c(C)c1`, the activation is inactive: -3.68%.
Regarding `CC(C)CC(=O)NCC(c1ccc2c(c1)OCO2)N1CCN(c2ccccc2F)CC1` (stereo unspecified), the activation is inactive: -20%.
Regarding `CCN(c1ccc(OC)cc1)S(=O)(=O)c1nnc(NC(=O)COc2ccc(F)cc2)s1`, the activation was inactive: -5.37%.
Turning to `Cc1cccc(-c2nc(SCC(=O)NCC3CCCO3)c3c(=O)n(C)c(=O)n(C)c3n2)c1` (stereo unspecified), the activation was inactive: -5.86%.
With `Cc1ccccc1N(C)C(=O)c1noc2c1COc1ccccc1-2`, the activation is inactive: -26.8%.
The same measure for `CCOC(=O)c1ccc(NC(=O)Nc2ccc3snnc3c2)cc1`: inactive: 18.5%; for `CCCN(CCc1cccs1)[C@H]1CCc2c(O)cccc2C1`: inactive: 36.7%; for `O=C(CCn1c(=O)c2cccn2c2cccnc21)NCc1ccccc1Br`: inactive: -7.54%.
For `CCOc1ccc(-c2noc(CSc3nnc(-c4ccccc4)n3-c3ccccc3)n2)cc1`, the activation is inactive: 2.41%.
Turning to `CCC(=O)Nc1ccc(C)cc1-c1nc2ccccc2n(C(C)C(=O)Nc2ccccc2CC)c1=O` (stereo unspecified), the activation is inactive: -27.7%.
Consider `CCC(CC)C(=O)Nc1ccc(C(=O)OCc2cc(=O)n3nc(C4CC4)sc3n2)cc1`, for which the activation is inactive: -13%.
The figure for `CN1C(=O)c2ccccc2Sc2ccc(NC(=O)Cc3c(F)cccc3Cl)cc21` is inactive: -39.7%; for `Cc1ccc(-n2nc(C(=O)N3CCN(c4ccccc4F)CC3)c3c4ccccc4n(C)c3c2=O)cc1` it is inactive: -4.2%.
In the case of `CCN(CC)CCCNC(=O)CCCn1c(=O)[nH]c2ccc(Br)cc2c1=O`, the activation was inactive: -19.3%.
Take `CC(=O)c1ccccc1NS(=O)(=O)c1cc2c(cc1C)NC(=O)CO2`: the activation is inactive: -11.9%.
With `CCC(C(=O)N1CCN(c2cc(Cl)ccc2C)CC1)n1nc(C)c2sc3ccccc3c2c1=O` (stereo unspecified), the activation is inactive: 1.97%.
Take `Cc1ccc(N(C)S(=O)(=O)c2ccc3c(c2)C(C)(C)C(=O)N3C)cc1C`: the activation is inactive: 4.49%.
On to `O=C(NCc1ccccc1Cl)c1cccn1-c1nnc(N2CCCCC2)s1`, for which the activation was inactive: -12.2%.
With `Cc1ccc(-n2nnnc2CNC(=O)c2ccc(F)cc2)cc1C`, the activation is inactive: -15.1%.
The same measure for `COc1ccccc1-c1nn2c(=O)cc(CN3CCN(S(=O)(=O)c4ccc(C)cc4)CC3)nc2s1`: inactive: -11.5%; for `Brc1ccc(CNCCCSc2nnnn2-c2ccccc2)cc1`: inactive: -17.3%.
The figure for `Cc1cccc(-c2noc(CNC(=O)c3ccco3)n2)c1` is inactive: -12.5%; for `CCOC(=O)c1ccc(NC(=O)C2Cc3ccccc3C(=O)O2)cc1` (stereo unspecified) it is inactive: -1.53%.
The same measure for `Clc1cccc(N2CCN(c3ncnc4c3nc3n4CCCC3)CC2)c1`: inactive: 13.2%.
`Cc1cc(=O)n(-c2ccccc2)n1C`: the activation was inactive: -9.84%.
As for `CC(=O)Nc1ccc(C)cc1-c1nc2ccccc2n(CC(=O)c2ccc(Cl)cc2)c1=O`, the activation is inactive: -7%.
The same measure for `COc1ccc(C(=O)NCC(c2cccs2)S(=O)(=O)c2ccc(F)c(C)c2)cc1` (stereo unspecified): active: 66.1%.
With `CC(=O)N(Cc1cccnc1)c1nc2ccc(F)cc2s1`, the activation is inactive: -12.3%.
With `COc1cccc2cc(-c3cn4c(n3)sc3cc(F)ccc34)c(=O)oc12`, the activation was inactive: -12.5%.
The figure for `Cc1ccc(CNC(=O)NC2COc3ccccc3C2)cc1` (stereo unspecified) is inactive: 4.24%; for `Cc1ccc(C2=Nc3ccccc3N(CC(=O)Nc3ccccc3C)C(=O)C2)cc1C` it is inactive: -6.53%.
Consider `CCOc1ccccc1C(=O)N1CCN(CCc2ccccn2)CC1`, for which the activation was inactive: -8.19%.
For the molecule `Cc1ccc(N2CCn3c2nc2c3c(=O)n(CCCc3ccccc3)c(=O)n2C)cc1`, the activation is inactive: -7.69%.
As to `COc1ccc(OC)c(CNC(=O)c2ccccc2NC(=O)c2nsc3ccccc23)c1`, the activation is inactive: -5.36%.
For `Cc1cc(C)c(NC(=O)Cn2c(=O)n(CCc3ccccc3)c(=O)c3ccccc32)c(C)c1`, the activation is inactive: -11.7%.
Consider `Cc1c(Cl)cccc1NC(=O)Cn1nc(C(F)(F)F)c2c1CCC2`, for which the activation is inactive: -9.2%.
For the molecule `Cc1ccc(NC(=O)C2CCCN(S(=O)(=O)c3cccc4cccnc34)C2)c(Br)c1` (stereo unspecified), the activation was inactive: -19%.
With `Cc1cc(C)n(-c2nc3ccccc3nc2Nc2cccc(C(=O)NCCc3ccccc3)c2)n1`, the activation was inactive: -7.4%.
Turning to `COc1ccc(CCNC(=O)c2c(C)oc3nc(C)nc(N4CCOCC4)c23)cc1OC`, the activation was inactive: -5.03%.

The record behind these values is PubChem BioAssay AID1346428 (National Center for Advancing Translational Sciences (NCATS), 2018).
